# According to ChEMBL document CHEMBL4888484, “Replenishing the malaria drug discovery pipeline: Screening and hit evaluation of the MMV Hit Generation Library 1 (HGL1) against asexual blood stage Plasmodium falciparum ,using a nano luciferase reporter read-out” (2022):
# Values joined by “and” are separate entries in the source; they are usually repeats but may differ in a detail not shown here. Identical values can stand only once. The campaign covered roughly 150,000 compounds. About 540 (0.36%) showed an effect of 50% or more. The list shows a part of the results.
# Test system: Plasmodium falciparum
# Experiment: Primary screen in NF54 nanoGlo assay, in single point, at 2uM, 72h; a lower Z score goes with more inhibition
# Format: functional, Erythrocyte
# Details: timepoint 72 hour
SMILES,% Inhibition [%],Z score,% Inhibition (2 µM)
CCCCn1ncc(NC(=O)[C@@](C)(O)C2CCC2)c1CC,-9,1.26,–
CCc1noc(C)c1CNC(=O)C[C@H]1CCC(=O)N1C,-6,0.95,–
Nc1cc(C(=O)NC[C@H]2CC[C@H](CO)CC2)n[nH]1,-11,1.7,–
O=S(=O)(Cc1ccccc1)N1CCC(OCc2noc([C@@H]3CCCO3)n2)CC1,-9,1.25,–
Cc1nn(C)cc1NC(=O)N[C@H]1CCCOCC1,-6,0.98,–
N#Cc1ccc(N2CC3CC4CC3C2C4O)nc1 (configuration not stated),5,-0.82,–
Cc1c(C)[n+]([O-])c([C@@H](c2ccc3nccnc3c2)C2C(=O)OC(C)(C)OC2=O)n1C,-8,0.95,–
COc1ccc(-c2n[nH]c(=O)c3c2CCCC3)cc1S(=O)(=O)Nc1cc(C)ccc1C,-22,3.01,–
c1ccc2cc(Cn3c(Cc4cccc5ccccc45)nc4ccccc43)ccc2c1,-9,1.48,–
COc1cc(CNCc2cccs2)ccc1OCc1ccc(C)cc1,-5,0.63,–
O=C(c1cccc(Cl)c1)N1CCC[C@H]1c1nc(-c2ccccc2)no1,-13,1.52,–
Cc1cc(Cl)cc(CN[C@H]2CCO[C@@H]2c2cccnc2)c1,0,0.08,–
CN1CCOC[C@@H](CNc2cccc(C#N)n2)C1,2,-0.27,–
Cc1ccc([C@@H]2CCCN2Cc2nc3c(=O)n(C)c(=O)n(C)c3[nH]2)o1,1,-0.11,–
COC(=O)N[C@@H](C)C(=O)NCc1cccc2[nH]ccc12,-18,1.94,–
COc1ccccc1C(=O)N1CCOCC2(CCCC2)C1,-14,2.14,–
O=C(CCCn1nc(-c2ccccc2)c2cc(Cl)ccc21)NCCCN1CCCC1,3,-0.56,–
COc1c(F)c(F)cc(C(=O)NCc2cncc(N3CCCC3=O)c2)c1F,-2,0.33,–
CN(c1ccc(C#N)nn1)C1CCCC1C(C)(C)C (configuration not stated),-9,1.26,–
CC(C)S(=O)(=O)CC(=O)N1CCCCC[C@H]1c1noc(-c2ccccc2)n1,-7,0.88,–
C[C@@H](C(=O)N1CCCN(c2cc(-c3ccc(Cl)cc3)n[nH]2)CC1)c1ccccc1,-16,1.63,–

SMILES,% Inhibition [%],Z score,% Inhibition (2 µM)
CNC(=O)c1cccc(C(=O)O[C@@H]2CCC[C@H]2n2cccn2)c1,-8,1.02,–
COc1ccc(S(=O)(=O)Nc2c(C)[nH]c(=O)[nH]c2=O)cc1OC,–,–,1% and -15%
CS(=O)(=O)N1CC2CC=CCC2C1 (configuration not stated),9,-1.01,–
CC(C)n1ncnc1CN[C@@H](C)c1ccc(-c2cccc(C#N)c2)cc1,-9,1.16,–
OCC(CO)[C@H]1CCN(c2nccc(C(F)(F)F)n2)C1,-2,0.48,–
COc1ccc(C(=O)N2CC[C@H](Oc3ccc4ccccc4n3)C2)c(OC)c1,-3,0.48,–
COC(=O)C[C@]1(C(=O)OC)N[C@@H](c2cccc(C)n2)[C@H]2C(=O)N(C)C(=O)[C@H]21,-11,1.58,–
CC1CC(NC(C)c2ccccc2OCc2ccccc2)CCO1 (configuration not stated),-2,0.24,–
O=C(NCc1ccc(F)cc1)N1CC(Oc2cccc(C(F)(F)F)n2)C1,-3,0.4,–
OCCN(Cc1cccnc1)Cc1cc(Cl)cc2c1OCC2,7,-0.6,–
CCOc1cc(C(=O)N[C@H]2CCS(=O)(=O)C2)ncn1,-2,0.29,–
O=C1CCN(C(=O)[C@H]2CCCO2)C2(CCC2)C1,-5,0.95,–
CC(C)=CCN1CCN(C(=O)c2ccc(Cl)cc2)[C@H]2CS(=O)(=O)C[C@H]21,-2,0.37,–
COc1cccc(Cn2c(=O)c3sccc3n(CC(=O)N3CCCCC3)c2=O)c1,31,-3.53,–
CC(C)c1cnc(N[C@H]2CCN(CC(=O)N(C)C)C[C@@H]2O)nc1,-1,0.2,–
Cc1nc(CNCc2nc(C)c(C)n2C)cs1,-6,0.79,–
Cc1ccc(F)c(N2CCC(NC(=O)[C@@H]3C[C@H]3c3cnn(C)c3)CC2)c1,-10,1.7,–
O=C(NC1CCOCC1)C1=NN(c2ccccc2)C(=O)CC1,-4,0.61,–
COc1ccc(C[C@@]2(CCC(=O)NCC3(O)CCCCC3)CCC(=O)N2)cc1OC,2,-0.28,–
CCn1ncc2ccc(N[C@@H](C)C3CCS(=O)(=O)CC3)cc21,-7,0.73,–
CCOc1cc(N2CCOCC2)c(OCC)cc1Nc1nc(C(F)(F)F)nc2cc(OC)ccc12,-4,0.45,–

SMILES,% Inhibition [%],Z score,% Inhibition (2 µM)
CN1CCCC[C@@H]1COc1nccs1,-3,0.46,–
Cc1cccc(CC(=O)N2CC(n3ccnn3)C2)c1,-10,1.59,–
CS(=O)(=O)C1(CNC(=O)[C@H]2CCn3cncc3C2)CCCC1,-9,1.2,–
COc1ncc(Br)cc1CNC(=O)Nc1ncn(C(C)(C)C)n1,-4,0.41,–
O=C(Nc1ccc2c(c1)OCO2)N1C[C@H]2CCN(Cc3ccccn3)[C@H]2C1,-8,0.7,–
O=C(O)c1sc2ccccc2c1CN1CCOC[C@@]12CCOC2,-10,2.02,–
CCc1cc(=O)[nH]c(-n2nc(C3CC3)cc2NC(=O)C2CCCCC2)n1,86,-14.68,–
CC(=O)N1C[C@H]2CC[C@@H](C1)N(C(=O)c1ccc(F)c(C)c1)C2,-9,0.97,–
CCN(C)C(=O)Nc1c(C)cccc1Cl,0,0.09,–
C[C@H]1CCCCN1CCNC(=O)CCc1ccc2ccn(C)c2c1,-8,0.94,–
NC(=O)[C@H]1CCN(c2ncccc2S(=O)(=O)N2CCCCC2)C1,-11,2,–
Cc1cc(=O)n(CCc2ccccc2)c(C)c1C(=O)NCCc1ccccc1,-17,2.15,–
CC(C)(C)CC(=O)N1CC[C@@H](CC(=O)O)[C@@H](CCN2CCN(c3ccccc3)CC2)C1,30,-3.41,–
CCc1noc(C)c1NC(=O)NCCc1cncc(C)n1,7,-1.32,–
CC(C)OCC(=O)Nc1ncc(S(=O)(=O)NC(C)(C)C)s1,8,-0.93,–
COCCn1ccc2ccn(Cc3ccc(F)c(F)c3)c(=O)c21,-19,1.65,–
Cc1cccc(CCC(=O)N[C@H]2CCOC3(CC(C(=O)O)C3)C2)c1 (some centres not stated),-13,2.06,–
COCCCn1c(-c2ccco2)nnc1N(C)Cc1ccc(OC)c(OC(F)F)c1,-5,0.78,–
c1cc(C2CCCC2)nc(-c2cn[nH]c2)n1,0,-0.05,–
CC(C)(C)CC(C)(C)NC(=O)[C@@H]1CCCO1,11,-1.5,–
CC(C)(C)n1nc(C2CCCC2)nc1Cn1ccnn1,3,-0.42,–

SMILES,% Inhibition [%],Z score,% Inhibition (2 µM)
CCc1ccc([C@@H]2CCCCCN2CC(=O)NCC#N)o1,-9,1.17,–
CCc1nc(CCNC(=O)N2CCC[C@@]3(CCC(=O)N(CCO)C3)C2)no1,3,-0.66,–
NCC1CCCN1C(=O)C1CC1c1ccccc1OC(F)(F)F (configuration not stated),5,-0.63,–
Cc1ncc(C(=O)NS(=O)(=O)c2ccc(F)cc2)s1,-13,1.61,–
O=S1(=O)C[C@@H]2[C@H](C1)N(Cc1ccc(OC(F)F)cc1)CCN2CCO,-4,0.76,–
Cc1ccc(Cn2ccc(NC(=O)c3cc(C4CC4)nc4c3c(C3CC3)nn4-c3ccccc3)n2)cc1,0,0.05,–
CCCC(=O)N1CCC(OC(=O)c2nccc3ccccc23)CC1,-3,0.33,–
CCC(NC(=O)Cc1ccoc1)C1CCCO1 (configuration not stated),19,-2.43,–
Cc1ccnn2cc3c(=O)n(C)c(=O)n(C)c3c12,-9,1.4,–
Cc1cc(C)nc(CNc2nnc(C(C)(C)C)o2)n1,-10,1.8,–
CCOc1ccc(NC(=O)N2CCCC[C@H]2c2nn(CC)c3c2COCC3)cc1,-1,0.19,–
O=C1OCC[C@H]2CN(c3ccncc3F)CCN12,-8,1.21,–
CC(C)c1cc(N2CC(=O)N[C@@H](C)C2)n2ncnc2n1,1,-0.15,–
NC(=O)[C@H]1CCCN(Cc2cc(F)cc3c2OCOC3)C1,-12,1.68,–
Cc1ocnc1C(=O)NCCn1nc(C(F)(F)F)cc1C,-7,1.1,–
COc1ccc(OC)c(-c2ncc(NC(=O)[C@@H]3COc4ccccc4O3)s2)c1,-11,1.7,–
O=C(c1nccc2ccccc12)N1CCC(C(=O)N2CCC3(CCCCO3)CC2)CC1,-10,1.33,–
COCCCN1C(=O)c2ccc(C(=O)Nc3ccc(Oc4ccc5ccccc5c4)cc3)cc2C1=O,1,-0.1,–
Cn1cc(Cl)c(C(=O)N(Cc2ccncc2)C[C@@H]2CCC(=O)N2)n1,1,-0.16,–
CC(C)CCNC(=O)NCc1nnc(C(=O)Nc2ccc3c(c2)OCO3)s1,13,-1.48,–
CCN(CC)c1onc(-c2ccccc2)c1CN(Cc1ccc(F)cc1)C(=O)COC,-12,2.31,–
